# PMC4336329 (PLoS ONE, 2015)
# The campaign covered roughly 310,000 compounds. About 2,200 (0.71%) showed an effect of 50% or more. Effects have a minus sign here. The list shows a part of the results.
# Molecular target: human ether-à-go-go-related gene (hERG) potassium channel (human, UniProt Q12809)
# Test: primary screen, population patch clamp on CHO cells stably expressing hERG
# human ether-à-go-go-related gene (hERG) potassium channel, sequence (Q12809 whole entry, looked up): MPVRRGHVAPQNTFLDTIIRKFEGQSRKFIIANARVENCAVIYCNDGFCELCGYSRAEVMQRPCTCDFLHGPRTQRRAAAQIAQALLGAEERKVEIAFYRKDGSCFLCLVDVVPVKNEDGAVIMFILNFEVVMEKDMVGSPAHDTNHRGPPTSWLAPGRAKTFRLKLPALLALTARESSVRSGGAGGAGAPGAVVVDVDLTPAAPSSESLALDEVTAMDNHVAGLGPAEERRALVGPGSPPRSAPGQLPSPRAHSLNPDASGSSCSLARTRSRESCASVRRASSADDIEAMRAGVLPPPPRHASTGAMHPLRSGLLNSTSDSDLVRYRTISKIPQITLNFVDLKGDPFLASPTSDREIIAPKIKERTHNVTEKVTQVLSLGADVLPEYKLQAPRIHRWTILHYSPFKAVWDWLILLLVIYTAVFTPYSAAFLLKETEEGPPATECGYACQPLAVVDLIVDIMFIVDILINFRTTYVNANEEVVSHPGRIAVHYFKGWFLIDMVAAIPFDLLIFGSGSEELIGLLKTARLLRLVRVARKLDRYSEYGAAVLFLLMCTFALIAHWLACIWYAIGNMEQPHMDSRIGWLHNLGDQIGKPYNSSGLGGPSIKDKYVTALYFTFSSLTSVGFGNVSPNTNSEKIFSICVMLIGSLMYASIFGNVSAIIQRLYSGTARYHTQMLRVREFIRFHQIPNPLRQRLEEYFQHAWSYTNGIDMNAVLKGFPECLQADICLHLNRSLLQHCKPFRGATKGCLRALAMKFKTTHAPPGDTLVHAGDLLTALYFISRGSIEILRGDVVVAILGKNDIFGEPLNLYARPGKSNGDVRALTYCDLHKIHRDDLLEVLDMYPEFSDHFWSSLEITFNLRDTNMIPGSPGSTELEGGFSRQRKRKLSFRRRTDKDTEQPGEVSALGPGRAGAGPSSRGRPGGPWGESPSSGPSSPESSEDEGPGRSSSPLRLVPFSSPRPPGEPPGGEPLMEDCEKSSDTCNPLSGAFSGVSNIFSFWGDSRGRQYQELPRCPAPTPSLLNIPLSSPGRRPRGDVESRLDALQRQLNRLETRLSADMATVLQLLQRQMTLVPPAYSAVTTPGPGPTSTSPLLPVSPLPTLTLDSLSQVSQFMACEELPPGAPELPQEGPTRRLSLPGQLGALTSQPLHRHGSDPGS
row,Structure (SMILES),"hERG current change (%, negative = inhibition) at 1uM"
1,Cc1nc(-c2ccccc2)sc1C(=O)CSc1ccc(Cl)cc1,6.07%
2,O=[N+]([O-])c1ccc(Oc2ccc(OCc3ccccc3)cc2)nc1,5.31%
3,CN(Cc1nc(CCc2ccccc2)no1)Cc1cccs1,2.37%
4,N#CCC1c2ccccc2CCN1C(=O)Nc1ccc(C(F)(F)F)cc1 (stereo not drawn),-4.23%
5,C/C(N)=C(\C#N)C(=O)NCCc1ccccn1,15.8%
6,O=C1NC(c2ccc(F)cc2)Oc2ccccc21 (stereo not drawn),9.53%
7,Cc1ccccc1OCCCCN1CCCCC1,13.7%
8,CC1=CC=CC2=NC(=O)CC(C)(C(=O)O)N12 (stereo not drawn),12.8%
9,Cc1ccc(CN2CCN(C3CCC3)CC2CCO)cc1 (stereo not drawn),7.27%
10,COc1ccc2[nH]c(=O)c(CN(C(=O)c3cccnc3)c3ccc(C)cc3C)cc2c1,12.1%
11,CC(C)[C@H](CO)Nc1nc(Nc2ccc(Cl)c(C(=O)O)c2)c2ncn(C(C)C)c2n1,17.5%
12,CC(=O)c1ccc(NC(=S)Nc2cccc3ccccc23)cc1,2.49%
13,O=C1N=C(N2CCc3ccccc3C2)S/C1=C\c1cccc(O)c1,5.26%
14,COc1ccc(CNC(=O)C2CCN(S(=O)(=O)c3ccc(-c4nn[nH]n4)cc3)CC2)cc1,-11.4%
15,O=C(O)C1CC1c1ccc(Br)cc1 (stereo not drawn),4.08%
16,Oc1ccccc1-c1nc(N2CCN(Cc3ccccc3)CC2)c2ccccc2n1,10.2%
17,Cc1ccc(C)c(S(=O)(=O)N2CCCCC2CCNC(=O)C(=O)NCc2ccccc2)c1 (stereo not drawn),12.4%
18,Cc1ccccc1N1CCN(C(=O)c2ccccc2NC(=O)C2CC=CCC2C(=O)O)CC1 (stereo not drawn),-3.93%
19,Cc1ccc(SCC2(O)CCN(C(=O)c3ccc(Cl)cc3)CC2)cc1,-0.625%
20,Cc1ccnc(NC(=O)C2CCN(S(=O)(=O)c3ccc(Cl)c(C(F)(F)F)c3)CC2)c1,-8.76%
21,O=C(COc1ncnc2ccccc12)NCc1ccc2c(c1)OCO2,7.58%
22,CCOc1ccc(CO[C@@H]2O[C@H](CO)[C@@H](O)[C@H](O)[C@H]2NC(C)=O)cc1OC,16%
23,O=C(Nc1ccccc1F)c1ccc(OCc2ccccc2)cc1,9.48%

row,Structure (SMILES),"hERG current change (%, negative = inhibition) at 1uM"
1,CC(C)(C)NC(=O)CN(C(=O)C(=O)Nc1ccc2c(c1)OCCO2)C1CC1,4.93%
2,COc1ccc(C(=O)Nc2ccccc2C(=O)N2CCCCCC2)cc1OC,-1.24%
3,CCOc1ccc(N2C(=O)CC(/C=C3/N(C)c4ccccc4C3(C)C)C2=O)cc1 (stereo not drawn),17.7%
4,COc1ccc(CC(=O)Nc2c3c(nn2-c2cccc(Cl)c2)CS(=O)(=O)C3)cc1,-37.5%
5,COc1ccc(N2CCN(C(=O)c3cc(=O)c4cc(C)c(C)cc4o3)CC2)cc1,16.1%
6,Cc1ccc(NC(=O)c2cccc3c2C(=O)N(C2CCCCC2)C3)cc1,9.85%
7,CCOC(=O)c1c(-c2ccc(C)o2)csc1NC(=O)COC(=O)c1cccs1,-22%
8,COc1ccc(OCC(=O)Nc2cc(-c3nn4c(C)nnc4s3)ccc2C)cc1,3.66%
9,C=CCNc1oc(-c2cccc3ccccc23)nc1C#N,-3.67%
10,CCN1CCCC1CNC(=O)C(NC(=O)C1CCC(C)CC1)C(C)C (stereo not drawn),11.6%
11,COc1cc(S(=O)(=O)N2CCN(C(=O)c3ccco3)CC2)c(OC)cc1C,13.9%
12,COc1cccc(NC(=O)CC2C(=O)NC3CCCCC3N2C(=O)c2ccccc2)c1 (stereo not drawn),16.2%
13,Cc1ccc(NC(=O)C(=O)NCCN2CCN(C(=O)C(c3ccccc3)c3ccccc3)CC2)cc1,2.47%
14,Cc1nnc(SCc2cccc([N+](=O)[O-])c2)s1,12.9%
15,COc1ccc(OCCn2ccnc2)cc1,10.3%
16,C=CCn1c(=S)sc2c(=O)[nH]cnc21,9.16%
17,Nc1nc(COC(=O)C2CC(=O)N(Cc3ccccc3Cl)C2)nc(Nc2ccccc2)n1 (stereo not drawn),-12.3%
18,CCC(C)NC(=O)C(=O)NCc1ccncc1 (stereo not drawn),10.8%
19,COc1ccccc1NC(=S)N1CCc2cc(OC)c(OC)cc2C1,5.83%
20,Cc1cc(-n2c(C)cc(C(=O)CSc3ccc4c(c3)OCCO4)c2C)no1,13.4%
21,CCCCCn1c(SCC(=O)OCC)nc2cc(C(=O)N3CCC(C(N)=O)CC3)ccc2c1=O,-5.67%
22,CCN(CC)S(=O)(=O)c1ccc2nc(NC(=O)c3ccco3)sc2c1,5.2%
